The text below walks through data of the supplement of paper PMC11348887.

Where a name gives a salt, the structure may show the parent alone. The list shows a part of the results. Rule as the data show it: active = -2 or less and inactive = the rest. Many values rest on one well or one pass, so single values are uncertain.
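Also: nuclei counted from DAPI counterstain by automated high-content image analysis, four fields per well at ×20 in 384-well plates, with sequential b-score then z-score normalization.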

For the test, the system named is hPSC-derived cortical neurons (WA09). The test is described as follows: nuclei number (viability) z-score; higher = more surviving cells. The settings on record: 5 µM; treatment: days 7-14 after plating, readout day 21.
Take `O=C(NC[C@H](O)CO)c1ccncc1Nc1ccc(I)cc1F`: the “nuclei number (z-score)” value is inactive: -0.124.
Regarding `Cc1ccc(-n2nc(C(C)(C)C)cc2NC(=O)NCc2cc(F)ccc2Oc2ccc3c(cnn3CCO)c2)cc1` [Pexmetinib (ARRY-614)], the “nuclei number (z-score)” value was inactive: 0.341.
Regarding `Oc1ccc(-c2nc(-c3ccc(F)cc3)c(-c3ccncc3)[nH]2)cc1`, the “nuclei number (z-score)” value was inactive: 0.0679.
Turning to `O=C(Nc1ccc(S(=O)(=O)Nc2ccccc2Cl)c(Cl)c1)c1ccccn1`, the “nuclei number (z-score)” value is inactive: 5.08.
Under `Cc1ccc(C(=O)Nc2ccc(CN3CCN(C)CC3)c(C(F)(F)F)c2)cc1C#Cc1cnc2[nH]ncc2c1` stands active: -3.86; under `Cc1ncc([N+](=O)[O-])n1CC(C)O` (stereo not given) [Secnidazole], inactive: 0.497; under `OCCn1cc(-c2cnc3nnn(Cc4ccc5ncccc5c4)c3n2)cn1`, inactive: 0.686.
Regarding `C[C@]12CCC(=O)C=C1[C@@H]1C[C@@H]1[C@H]1[C@@H]3[C@@H]4C[C@@H]4[C@@]4(CCC(=O)O4)[C@@]3(C)CC[C@@H]12` [Drospirenone], the “nuclei number (z-score)” value is inactive: 0.776.
Take `COc1ccc2cc([C@H](C)C(=O)O)ccc2c1` [Naproxen]: the “nuclei number (z-score)” value is active: -2.12.
Consider `N#Cc1cc(CN2CCC(Nc3ncnc4sc(Cl)cc34)CC2)ccc1F`, for which the “nuclei number (z-score)” value was inactive: -0.477.
For the molecule `CC(=O)O/N=C1/C(c2c(O)[nH]c3cc(Br)ccc23)=Nc2ccccc21` [BIO-acetoxime], the “nuclei number (z-score)” value was inactive: -0.454.
Under `CCCN(CCC)CCc1cccc2c1CC(=O)N2` [Ropinirole HCl] stands inactive: 0.781; under `O[C@H]1[C@H](O)[C@@H](O)[C@H](O)[C@@H](O)[C@H]1O` [i-Inositol], inactive: -0.617.
On to `COc1cccc2c1C(=O)c1c(O)c3c(c(O)c1C2=O)C[C@@](O)(C(=O)CO)C[C@@H]3O[C@H]1C[C@H](N)[C@@H](O)[C@H](C)O1` [Epirubicin HCl], for which the “nuclei number (z-score)” value is active: -3.92.
Regarding `CN1CCC(Nc2nc(Nc3ccc(Oc4ccccc4)cc3)c3c(=O)[nH]cc(Br)c3n2)CC1`, the “nuclei number (z-score)” value was active: -5.46.
With `CC(=O)O[C@H]1C(=O)[C@@]2(C)[C@H]([C@H](OC(=O)c3ccccc3)[C@]3(O)C[C@H](OC(=O)[C@H](O)[C@@H](NC(=O)c4ccccc4)c4ccccc4)C(C)=C1C3(C)C)[C@]1(OC(C)=O)CO[C@@H]1C[C@@H]2O` [Paclitaxel] the figure was inactive: -0.887.
With `NC(=O)c1cccc(-c2cccc(OC(=O)NC3CCCCC3)c2)c1` the figure was inactive: 0.506; with `CC(C)C[C@H](NC(=O)[C@H](Cc1ccccc1)C[C@@H](O)[C@H](Cc1ccccc1)NC(=O)OC(C)(C)C)C(=O)N[C@@H](Cc1ccccc1)C(N)=O`, inactive: 0.852.
In the case of `COc1cc2nc(N3CCCC3)nc(NCCCCCN3CCCC3)c2cc1OC`, the “nuclei number (z-score)” value is active: -5.46.
Take `NC(=O)c1cnccn1` [Pyrazinamide]: the “nuclei number (z-score)” value is inactive: -0.376.
`Nc1nc(N)c(N=O)c(OCC2CCCCC2)n1`: the “nuclei number (z-score)” value is inactive: 3.93.
Regarding `Cn1cnc2c(F)c(Nc3ccc(Br)cc3F)c(C(=O)NOCCO)cc21`, the “nuclei number (z-score)” value is inactive: -0.328.
For the molecule `C#Cc1cccc(Nc2ncnc3cc(OCCOC)c(OCCO)cc23)c1`, the “nuclei number (z-score)” value was inactive: 0.0333.
Turning to `CCCCCCCCCCCCCCCCn1cc[n+](Cc2ccccc2)c1C`, the “nuclei number (z-score)” value is active: -4.62.
Take `Nc1ccc(-c2ccc3ncc4ccc(=O)n(-c5cccc(C(F)(F)F)c5)c4c3c2)cn1` [Torin 2]: the “nuclei number (z-score)” value was inactive: -0.355.
With `CSc1nc2cc(Cl)c(Oc3cccc(Cl)c3Cl)cc2[nH]1` [Triclabendazole], the “nuclei number (z-score)” value is inactive: -0.604.
`O=C(CCNNC(=O)c1ccncc1)NCc1ccccc1` [Nialamide]: the “nuclei number (z-score)” value was inactive: -0.355.
Under `Cc1cnc(-c2ccccc2C(C)C)nc1NCc1ccc(-n2ccnn2)cc1` stands inactive: -0.407; under `CNc1cc(-c2cccc(Cl)c2Cl)nc(N)n1`, inactive: 0.125.
On to `CCC(C)(Oc1ccc(C2(c3ccc(OC(C)(CC)C(=O)O)cc3)CCCCC2)cc1)C(=O)O` (stereo not given) [Clinofibrate], for which the “nuclei number (z-score)” value was inactive: 0.299.
For `C[C@@H](O[C@H]1OCCN(Cc2nn(P(=O)(O)O)c(=O)[nH]2)[C@H]1c1ccc(F)cc1)c1cc(C(F)(F)F)cc(C(F)(F)F)c1` [Fosaprepitant dimeglumine salt], the “nuclei number (z-score)” value is inactive: -0.538.
Turning to `c1nc2c(NC3CCCCC3)nc(Nc3ccc(N4CCOCC4)cc3)nc2[nH]1` [Reversine], the “nuclei number (z-score)” value was inactive: 0.0722.
Under `COc1cc2nccc(Oc3ccc(NC(=O)NC4CC4)c(Cl)c3)c2cc1C(N)=O` [Lenvatinib (E7080)] stands inactive: 0.366.
Under `COc1nc(OCc2cccc(-c3ccccc3)c2C)ccc1CNCCNC(C)=O` [PD-1/PD-L1 inhibitor 2] stands active: -2.97; under `CN1CCc2c(c3ccccc3n2Cc2ccc(C(=O)NO)cc2)C1` [Tubastatin A HCl], inactive: 1.26; under `CN1CCc2c(c3ccccc3n2Cc2ccc(C(=O)NO)cc2)C1` [Tubastatin A], inactive: -0.234.
Under `O=c1c(-n2ccnn2)c[nH]n1-c1cc(N2CCOCC2)ncn1` [Molidustat (BAY 85-3934)] stands inactive: -0.557.
Take `CC[C@@H]1C(=O)OC[C@@H]1Cc1cncn1C` [Pilocarpine HCl]: the “nuclei number (z-score)” value was inactive: 2.72.
On to `Cc1cnc(-c2cc(N3CCN(C(=O)CCS(C)(=O)=O)CC3)ncc2Cl)c(C)c1`, for which the “nuclei number (z-score)” value is inactive: -0.721.
In the case of `CC(C)(CO)c1cc2cc(NC(=O)C3(c4ccc5c(c4)OC(F)(F)O5)CC3)c(F)cc2n1C[C@@H](O)CO`, the “nuclei number (z-score)” value was inactive: 1.46.
For `Cc1c(CN2CCN(C(=O)[C@H](C)O)CC2)sc2c(N3CCOCC3)nc(-c3cnc(N)nc3)nc12`, the “nuclei number (z-score)” value was active: -2.7.
Regarding `N#CCNC(=O)c1ccc(-c2ccnc(Nc3ccc(N4CCOCC4)cc3)n2)cc1`, the “nuclei number (z-score)” value was inactive: 0.598.
In the case of `OCc1c[nH]c2ccccc12` [Indole-3-carbinol], the “nuclei number (z-score)” value was inactive: 0.665.
As for `CS(=O)(=O)OCCCCOS(C)(=O)=O` [Busulfan], the “nuclei number (z-score)” value was inactive: -0.832.
Take `Cc1c(NC(=O)c2cccnc2)c(=O)n(-c2ccccc2)n1C` [Nifenazone]: the “nuclei number (z-score)” value was inactive: -0.503.
As to `N#Cc1ccc(-c2csc(NN=C3CCCC3)n2)cc1` [Remodelin], the “nuclei number (z-score)” value was inactive: 0.145.
Take `O=C(/C=C/c1ccc(O)cc1)c1ccc(O)cc1O` [Isoliquiritigenin]: the “nuclei number (z-score)” value is inactive: 3.44.
With `CC(C)NC[C@@H](O)COc1ccc(CC(N)=O)cc1` [(R)-(+)-Atenolol HCl], the “nuclei number (z-score)” value is inactive: -0.595.
In the case of `Cc1ncc(-c2ccnc(Nc3ccc(S(C)(=O)=O)cc3)n2)n1C(C)C`, the “nuclei number (z-score)” value is inactive: -1.93.
In the case of `Cc1ccc2nc(CN(CCN(Cc3nc4ccc(C)cc4[nH]3)Cc3nc4ccc(C)cc4[nH]3)Cc3nc4ccc(C)cc4[nH]3)[nH]c2c1`, the “nuclei number (z-score)” value was active: -5.2.
In the case of `C=C1CC[C@@H]2[C@](C)(CO)[C@H](O)CC[C@@]2(C)[C@@H]1C/C=C1/C(=O)OC[C@H]1O` [Andrographolide], the “nuclei number (z-score)” value is inactive: 0.168.
Regarding `CC(=O)NS(=O)(=O)c1ccc(N)cc1` [Sulfacetamide Sodium], the “nuclei number (z-score)” value was inactive: 0.395.
Regarding `Cc1cn([C@H]2C=C[C@@H](CO)O2)c(=O)[nH]c1=O` [Stavudine (d4T)], the “nuclei number (z-score)” value was inactive: 0.598.
In the case of `CC[C@H](C)[C@@H]1NC(=O)[C@H](Cc2ccc(O)cc2)NC(=O)[C@@H](N)CSSC[C@@H](C(=O)N2CCC[C@H]2C(=O)N[C@@H](CC(C)C)C(=O)NCC(N)=O)NC(=O)[C@H](CC(N)=O)NC(=O)[C@H](CCC(N)=O)NC1=O` [Oxytocin (Syntocinon)], the “nuclei number (z-score)” value was inactive: 0.713.
`CN1C(CCl)Nc2cc(Cl)c(S(N)(=O)=O)cc2S1(=O)=O` (stereo not given) [Methyclothiazide]: the “nuclei number (z-score)” value is active: -5.64.
`C=CC1=C(C(=O)O)N2C(=O)[C@@H](NC(=O)/C(=N\O)c3csc(N)n3)[C@H]2SC1` [Cefdinir]: the “nuclei number (z-score)” value was inactive: 1.54.
For `OCc1ccccc1O[C@@H]1O[C@H](CO)[C@@H](O)[C@H](O)[C@H]1O` [Salicin], the “nuclei number (z-score)” value was inactive: 0.411.
With `COc1cccc2c1C(=O)c1c(O)c3c(c(O)c1C2=O)C[C@@](O)(C(C)=O)C[C@@H]3O[C@H]1C[C@H](N)[C@H](O)[C@H](C)O1` [Daunorubicin HCl] the figure was active: -2.73.
With `CNC(=O)c1cc(Oc2ccc(NC(=O)Nc3ccc(Cl)c(C(F)(F)F)c3)cc2)ccn1` [Sorafenib Tosylate], the “nuclei number (z-score)” value is inactive: 0.865.
For the molecule `CNC(=O)c1cc(Oc2ccc(NC(=O)Nc3ccc(Cl)c(C(F)(F)F)c3)cc2)ccn1` [Sorafenib], the “nuclei number (z-score)” value was inactive: 4.36.
Consider `CNC(=O)c1ccccc1Nc1cc(Nc2ccc(N3CCOCC3)cc2OC)ncc1C(F)(F)F`, for which the “nuclei number (z-score)” value is inactive: -0.815.
With `CC/C(=C(\c1ccc(O)cc1)c1ccc(OCCNC)cc1)c1ccccc1` [Endoxifen HCl], the “nuclei number (z-score)” value was active: -3.41.
As to `CCn1cc(C(=O)O)c(=O)c2c(N)c(F)c(NC3CCCCC3)cc21`, the “nuclei number (z-score)” value is inactive: 0.356.
With `Cc1ccc(S(=O)(=O)Cc2nc(-c3ccc(C(=O)NCc4cccnc4)cc3)oc2C)cc1`, the “nuclei number (z-score)” value was active: -4.94.
With `CC(C)COc1ccc(CNC(=O)N(Cc2ccc(F)cc2)C2CCN(C)CC2)cc1` [Pimavanserin], the “nuclei number (z-score)” value was active: -6.42.
For `CN(c1ccccc1CNc1nc(Nc2ccc3c(c2)CC(=O)N3)ncc1C(F)(F)F)S(C)(=O)=O`, the “nuclei number (z-score)” value is inactive: -0.752.
In the case of `O=c1oc2c(O)c(O)cc3c(=O)oc4c(O)c(O)cc1c4c23` [Ellagic acid], the “nuclei number (z-score)” value is inactive: 3.33.
Regarding `CC(C=CC(=O)NO)=CC(C)C(=O)c1ccc(N(C)C)cc1` (stereo not given) [Trichostatin A (TSA)], the “nuclei number (z-score)” value was active: -3.15.
Consider `c1ccc2c(CC3=NCCN3)cccc2c1` [Naphazoline HCl], for which the “nuclei number (z-score)” value is inactive: -0.534.
As for `CC(=O)OCC(=O)[C@@]12OC(C)(C)O[C@@H]1C[C@H]1[C@@H]3C[C@H](F)C4=CC(=O)C=C[C@]4(C)[C@@]3(F)[C@@H](O)C[C@@]12C` [Fluocinonide], the “nuclei number (z-score)” value was inactive: -0.205.
